# Laboratory results from the supplement of paper PMC8728848.
# The other results are listed elsewhere or left out.
# B1: MGL (Homo sapiens), Q8IUN9 (protein)
# chain: MTRTYENFQYLENKVKVQGFKNGPLPLQSLLQRLCSGPCHLLLSLGLGLLLLVIICVVGFQNSKFQRDLVTLRTDFSNFTSNTVAEIQALTSQGSSLEETIASLKAEVEGFKQERQAGVSELQEHTTQKAHLGHCPHCPSVCVPVHSEMLLRVQQLVQDLKKLTCQVATLNNNASTEGTCCPVNWVEHQDSCYWFSHSGMSWAEAEKYCQLKNAHLVVINSREEQNFVQKYLGSAYTWMGLSDPEGAWKWVDGTDYATGFQNWKPGQPDDWQGHGLGGGEDCAHFHPDGRWNDDVCQRPYHWVCEAGLGQTSQESH
# Key:
# Assay in all cases: glycan array binding signal (z-score within array); higher = stronger binding
# Conditions in all cases: glycan notation: IUPAC condensed, linker removed
# GlcNAc(b1-3)GalNAc = target: GlcNAc(b1-3)GalNAc
# Method in brief: (§1)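 From the Consortium for Functional Glycomics database, 3228 arrays were curated, keeping only those whose protein sequence was available. Binding is given as a within-array Z-score averaged across arrays sharing a protein sequence and across linkers. Negative Z-scores can be read as non-binding.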
# GlcNAc(b1-3)Man = target: GlcNAc(b1-3)Man
# Method in brief: as §1
# [1] = target: GlcNAc(b1-3)[GlcNAc(b1-4)][GlcNAc(b1-6)]GlcNAc
# Method in brief: as §1
# [2] = target: GlcNAc(b1-3)[GlcNAc(b1-6)]Gal(b1-4)GlcNAc
# Method in brief: as §1
# [3] = target: GlcNAc(b1-3)[GlcNAc(b1-6)]GalNAc
# Method in brief: as §1
# [4] = target: GlcNAc(b1-4)Gal(b1-4)GlcNAc
# Method in brief: as §1
# GlcNAc(b1-4)GlcNAc = target: GlcNAc(b1-4)GlcNAc
# Method in brief: as §1
# [5] = target: GlcNAc(b1-4)GlcNAc(b1-4)GlcNAc
# Method in brief: as §1
# [6] = target: GlcNAc(b1-4)GlcNAc(b1-4)GlcNAc(b1-4)GlcNAc(b1-4)GlcNAc
# Method in brief: as §1
# [7] = target: GlcNAc(b1-4)GlcNAc(b1-4)GlcNAc(b1-4)GlcNAc(b1-4)GlcNAc(b1-4)GlcNAc
# Method in brief: as §1
# [8] = target: GlcNAc(b1-4)[GlcNAc(b1-6)]GalNAc
# Method in brief: as §1
# [9] = target: GlcNAc(b1-6)Gal(b1-4)GlcNAc
# Method in brief: as §1
# GlcNAc(b1-6)GalNAc = target: GlcNAc(b1-6)GalNAc
# Method in brief: as §1
# [10] = target: GlcNAc6S(b1-3)Gal(b1-4)GlcNAc
# Method in brief: as §1
# Kdn(a2-3)Gal(b1-3)GalNAc = target: Kdn(a2-3)Gal(b1-3)GalNAc
# Method in brief: as §1
# Kdn(a2-3)Gal(b1-3)GlcNAc = target: Kdn(a2-3)Gal(b1-3)GlcNAc
# Method in brief: as §1
# Kdn(a2-3)Gal(b1-4)Glc = target: Kdn(a2-3)Gal(b1-4)Glc
# Method in brief: as §1
# Kdn(a2-3)Gal(b1-4)GlcNAc = target: Kdn(a2-3)Gal(b1-4)GlcNAc
# Method in brief: as §1
# [11] = target: Kdn(a2-3)Gal(b1-4)[Fuc(a1-3)]GlcNAc
# Method in brief: as §1
# Kdn(a2-6)Gal(b1-4)GlcNAc = target: Kdn(a2-6)Gal(b1-4)GlcNAc
# Method in brief: as §1
# [12] = target: Man(a1-2)Man(a1-2)Man(a1-3)Man
# Method in brief: as §1
# [13] = target: Man(a1-2)Man(a1-2)Man(a1-6)[Man(a1-3)]Man
# Method in brief: as §1
# Man(a1-2)Man(a1-3)Man = target: Man(a1-2)Man(a1-3)Man
# Method in brief: as §1
# [14] = target: Man(a1-2)Man(a1-3)[Man(a1-2)Man(a1-6)]Man
# Method in brief: as §1
# [15] = target: Man(a1-2)Man(a1-3)[Man(a1-2)Man(a1-6)]Man(a1-6)[Man(a1-2)Man(a1-2)Man(a1-3)]Man
# Method in brief: as §1
# [16] = target: Man(a1-2)Man(a1-3)[Man(a1-2)Man(a1-6)]Man(a1-6)[Man(a1-2)Man(a1-2)Man(a1-3)]Man(b1-4)GlcNAc(b1-4)GlcNAc
# Method in brief: as §1
# [17] = target: Man(a1-2)Man(a1-3)[Man(a1-6)]Man(a1-6)[Man(a1-2)Man(a1-3)]Man(b1-4)GlcNAc(b1-4)GlcNAc
# Method in brief: as §1
# [18] = target: Man(a1-2)Man(a1-6)[Man(a1-3)]Man(a1-6)[Man(a1-2)Man(a1-2)Man(a1-3)]Man
# Method in brief: as §1
# [19] = target: Man(a1-2)Man(a1-6)[Man(a1-3)]Man(a1-6)[Man(a1-2)Man(a1-2)Man(a1-3)]Man(b1-4)GlcNAc(b1-4)GlcNAc
# Method in brief: as §1
# Man(a1-3)[Man(a1-6)]Man = target: Man(a1-3)[Man(a1-6)]Man
# Method in brief: as §1
# [20] = target: Man(a1-3)[Man(a1-6)]Man(a1-6)[Man(a1-2)Man(a1-3)]Man(b1-4)GlcNAc(b1-4)GlcNAc
# Method in brief: as §1
# [21] = target: Man(a1-3)[Man(a1-6)]Man(a1-6)[Man(a1-3)]Man
# Method in brief: as §1
# [22] = target: Man(a1-3)[Man(a1-6)]Man(a1-6)[Man(a1-3)]Man(b1-4)GlcNAc(b1-4)GlcNAc
# Method in brief: as §1
# [23] = target: Man(a1-3)[Man(a1-6)]Man(b1-4)GlcNAc(b1-4)GlcNAc
# Method in brief: as §1
# [24] = target: Man(a1-3)[Man(a1-6)]Man(b1-4)GlcNAc(b1-4)[Fuc(a1-6)]GlcNAc
# Method in brief: as §1
# Man(a1-6)Man = target: Man(a1-6)Man
# Method in brief: as §1
# Man(b1-4)GlcNAc = target: Man(b1-4)GlcNAc
# Method in brief: as §1
# MurNAc(b1-4)GlcNAc = target: MurNAc(b1-4)GlcNAc
# Method in brief: as §1
binder,measurement,setting,value
B1,glycan array binding signal (z-score),GlcNAc(b1-3)GalNAc,-0.231
same,glycan array binding signal (z-score),GlcNAc(b1-3)Man,-0.24
same,glycan array binding signal (z-score),[1],-0.403
same,glycan array binding signal (z-score),[2],-0.239
same,glycan array binding signal (z-score),[3],-0.246
same,glycan array binding signal (z-score),[4],-0.241
same,glycan array binding signal (z-score),GlcNAc(b1-4)GlcNAc,-0.243
same,glycan array binding signal (z-score),[5],-0.253
same,glycan array binding signal (z-score),[6],-0.238
same,glycan array binding signal (z-score),[7],-0.252
same,glycan array binding signal (z-score),[8],-0.245
same,glycan array binding signal (z-score),[9],-0.239
same,glycan array binding signal (z-score),GlcNAc(b1-6)GalNAc,4.7
same,glycan array binding signal (z-score),[10],-0.244
same,glycan array binding signal (z-score),Kdn(a2-3)Gal(b1-3)GalNAc,-0.238
same,glycan array binding signal (z-score),Kdn(a2-3)Gal(b1-3)GlcNAc,-0.239
same,glycan array binding signal (z-score),Kdn(a2-3)Gal(b1-4)Glc,-0.246
same,glycan array binding signal (z-score),Kdn(a2-3)Gal(b1-4)GlcNAc,-0.237
same,glycan array binding signal (z-score),[11],-0.247
same,glycan array binding signal (z-score),Kdn(a2-6)Gal(b1-4)GlcNAc,-0.245
same,glycan array binding signal (z-score),[12],-0.257
same,glycan array binding signal (z-score),[13],-0.248
same,glycan array binding signal (z-score),Man(a1-2)Man(a1-3)Man,-0.252
same,glycan array binding signal (z-score),[14],-0.239
same,glycan array binding signal (z-score),[15],-0.242
same,glycan array binding signal (z-score),[16],-0.252
same,glycan array binding signal (z-score),[17],-0.247
same,glycan array binding signal (z-score),[18],-0.25
same,glycan array binding signal (z-score),[19],-0.25
same,glycan array binding signal (z-score),Man(a1-3)[Man(a1-6)]Man,-0.236
same,glycan array binding signal (z-score),[20],-0.102
same,glycan array binding signal (z-score),[21],-0.246
same,glycan array binding signal (z-score),[22],-0.248
same,glycan array binding signal (z-score),[23],-0.256
same,glycan array binding signal (z-score),[24],-0.24
same,glycan array binding signal (z-score),Man(a1-6)Man,-0.248
same,glycan array binding signal (z-score),Man(b1-4)GlcNAc,-0.237
same,glycan array binding signal (z-score),MurNAc(b1-4)GlcNAc,-0.241
